# This is a selection; strong and weak results do not stand in their true shares. At the low end of the ranking, values are background and their order means little. Some of the results follow.
# Assays:
# [1] = target: AGO2 WT (phosphosite mutant background) S387D + S824A + S828D + S831D + S834A (UniProt Q9UKV8); assay: RNA Bind-n-Seq (nitrocellulose filter binding and sequencing); conditions: constant regions annealed to DNA blockers; guide miR-122 5' phosphate; 30 mM Tris pH 8.0, 100 mM potassium acetate, 2 mM magnesium acetate, 0.5 mM TCEP, 0.005% NP-40, 0.01 mg/ml yeast tRNA; 3 nM AGO2-miR-122, 100 nM RNA library …; high values mean tight binding
# [2] = target: AGO2 F182del S387D + S824A + S828D + S831D + S834A + del182-182 (UniProt Q9UKV8); assay: as above; conditions: constant regions annealed to DNA blockers; guide miR-122 5' phosphate; 30 mM Tris pH 8.0, 100 mM potassium acetate, 2 mM magnesium acetate, 0.5 mM TCEP, 0.005% NP-40, 0.01 mg/ml yeast tRNA; 3 nM AGO2-miR-122, 100 nM RNA library …; high values mean tight binding
Sequence,binding signal (fold enrichment over input) [1],binding signal (fold enrichment over input) [2]
GAGUUCUACAGUCCGACGAUCCCAACGUAUCUUGCACCUGGAAUUCUCGGGUGCCAA / UGGAGUGUGACAAUGGUGUUUG / GATCGTCGGACTGTAGAACTC / TTGGCACCCGAGAATTCCA,0.086,0.0392
GAGUUCUACAGUCCGACGAUCCCAACGCAUUCUGCACCUGGAAUUCUCGGGUGCCAA / UGGAGUGUGACAAUGGUGUUUG / GATCGTCGGACTGTAGAACTC / TTGGCACCCGAGAATTCCA,0.0933,0.0388
GAGUUCUACAGUCCGACGAUCCCAACAUGUUCCGCACCUGGAAUUCUCGGGUGCCAA / UGGAGUGUGACAAUGGUGUUUG / GATCGTCGGACTGTAGAACTC / TTGGCACCCGAGAATTCCA,0.0928,0.0467
GAGUUCUACAGUCCGACGAUCCCAACACACUCCGCACCUGGAAUUCUCGGGUGCCAA / UGGAGUGUGACAAUGGUGUUUG / GATCGTCGGACTGTAGAACTC / TTGGCACCCGAGAATTCCA,154,91
GAGUUCUACAGUCCGACGAUCCCAACAUGUCUUACACCUGGAAUUCUCGGGUGCCAA / UGGAGUGUGACAAUGGUGUUUG / GATCGTCGGACTGTAGAACTC / TTGGCACCCGAGAATTCCA,0.142,0.57
GAGUUCUACAGUCCGACGAUCCCAACACGCCUCGCACCUGGAAUUCUCGGGUGCCAA / UGGAGUGUGACAAUGGUGUUUG / GATCGTCGGACTGTAGAACTC / TTGGCACCCGAGAATTCCA,0.095,0.0915
GAGUUCUACAGUCCGACGAUCCCAACACACCUCACACCUGGAAUUCUCGGGUGCCAA / UGGAGUGUGACAAUGGUGUUUG / GATCGTCGGACTGTAGAACTC / TTGGCACCCGAGAATTCCA,0.251,4.6
GAGUUCUACAGUCCGACGAUCCCAACAUGCCCCACACCUGGAAUUCUCGGGUGCCAA / UGGAGUGUGACAAUGGUGUUUG / GATCGTCGGACTGTAGAACTC / TTGGCACCCGAGAATTCCA,0.116,0.191
GAGUUCUACAGUCCGACGAUCCCAACAUACUCUGCACCUGGAAUUCUCGGGUGCCAA / UGGAGUGUGACAAUGGUGUUUG / GATCGTCGGACTGTAGAACTC / TTGGCACCCGAGAATTCCA,0.102,0.0808
GAGUUCUACAGUCCGACGAUCCCAACGUGCUCUACACCUGGAAUUCUCGGGUGCCAA / UGGAGUGUGACAAUGGUGUUUG / GATCGTCGGACTGTAGAACTC / TTGGCACCCGAGAATTCCA,0.108,0.0712
GAGUUCUACAGUCCGACGAUCCCAACAUGUCUCACACCUGGAAUUCUCGGGUGCCAA / UGGAGUGUGACAAUGGUGUUUG / GATCGTCGGACTGTAGAACTC / TTGGCACCCGAGAATTCCA,0.232,1.79
GAGUUCUACAGUCCGACGAUCCCAACGCACUUUACACCUGGAAUUCUCGGGUGCCAA / UGGAGUGUGACAAUGGUGUUUG / GATCGTCGGACTGTAGAACTC / TTGGCACCCGAGAATTCCA,0.12,0.122
GAGUUCUACAGUCCGACGAUCCCAACACAUUUCGCACCUGGAAUUCUCGGGUGCCAA / UGGAGUGUGACAAUGGUGUUUG / GATCGTCGGACTGTAGAACTC / TTGGCACCCGAGAATTCCA,0.0907,0.116
GAGUUCUACAGUCCGACGAUCCCAACACACCCCACACCUGGAAUUCUCGGGUGCCAA / UGGAGUGUGACAAUGGUGUUUG / GATCGTCGGACTGTAGAACTC / TTGGCACCCGAGAATTCCA,0.238,2.15
GAGUUCUACAGUCCGACGAUCCCAACAUACCCCGCACCUGGAAUUCUCGGGUGCCAA / UGGAGUGUGACAAUGGUGUUUG / GATCGTCGGACTGTAGAACTC / TTGGCACCCGAGAATTCCA,0.0919,0.058
GAGUUCUACAGUCCGACGAUCCCAACAUGCCUCACACCUGGAAUUCUCGGGUGCCAA / UGGAGUGUGACAAUGGUGUUUG / GATCGTCGGACTGTAGAACTC / TTGGCACCCGAGAATTCCA,0.127,0.9
GAGUUCUACAGUCCGACGAUCCCAACACGUUUUACACCUGGAAUUCUCGGGUGCCAA / UGGAGUGUGACAAUGGUGUUUG / GATCGTCGGACTGTAGAACTC / TTGGCACCCGAGAATTCCA,0.116,0.204
GAGUUCUACAGUCCGACGAUCCCAACGCGUUCCGCACCUGGAAUUCUCGGGUGCCAA / UGGAGUGUGACAAUGGUGUUUG / GATCGTCGGACTGTAGAACTC / TTGGCACCCGAGAATTCCA,0.112,0.0455
GAGUUCUACAGUCCGACGAUCCCAACAUGUCUUGCACCUGGAAUUCUCGGGUGCCAA / UGGAGUGUGACAAUGGUGUUUG / GATCGTCGGACTGTAGAACTC / TTGGCACCCGAGAATTCCA,0.0825,0.0421
GAGUUCUACAGUCCGACGAUCCCAACACGCCCUGCACCUGGAAUUCUCGGGUGCCAA / UGGAGUGUGACAAUGGUGUUUG / GATCGTCGGACTGTAGAACTC / TTGGCACCCGAGAATTCCA,0.0958,0.0552

# Reference: PMC12529666
